Over roughly 81,000 sequences, “one-hybrid fitness for binding parS DNA” has its median near -0.17; the highest 2% begin near 0.51. The list shows a part of the results.
B1: Caulobacter ParB omega fusion; a variant is named by its letters at X, in order, B8GW30 (parent)
chain: MESVVVGEPGMSEGRRGLGRGLSALLGEVDAAPAQAPGEQLGGSREAPIEILQRNPDQPRRTFREEDLEDLSNSIREKGVLQPILVRPSPDTAGEYQIVAGERAWRAAQRAGLKTVPIMVRELDDLAVLEIGIIENVQRADLNVLEEALSYKVLMEKFERTQENIAQTIGKSXSHVANXMRLLXLPDEVQSYLVSGELTAXHARAIAAAADPVALAKQIIEGGLSVRETEALARKAPNLSAGKSKGGRPPRVKDTDTQALESDLSSVLGLDVSIDHRGSTGTLTITYATLEQLDDLCNRLTRGI

Variants of: B1
Assay: one-hybrid fitness for binding parS DNA (scaled: cognate 1, non-cognate 0); higher = stronger binding
Conditions: with parS DNA site
Outline: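 Bacterial one-hybrid selection in E. coli USO rpoZ- hisB- pyrF- with a HIS3 reporter carrying the site 19 bp from the promoter, screening Caulobacter ParB libraries with four specificity codons randomised (NNS). Cells grew 48 hours at 37°C on M9-minus-histidine plus 0.1 mM IPTG and 5 mM 3-AT. Plasmids before and after selection were Illumina-sequenced, three replicate libraries pooled, and variants under 10 reads dropped. Fitness is the log change in variant-to-wild-type read ratio, rescaled to cognate 1, non-cognate 0.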

| Variant | one-hybrid fitness for binding parS DNA |
| --- | --- |
| PVNL | ≤ 0.2 |
| GERS | ≤ 0.2 |
| MKRT | ≤ 0.2 |
| AYWS | ≤ 0.2 |
| DFAT | ≤ 0.2 |
| TTHM | ≤ 0.2 |
| SDTV | ≤ 0.2 |
| YLNC | ≤ 0.2 |
| YVNG | ≤ 0.2 |
| WFQR | ≤ 0.2 |
| GDPY | ≤ 0.2 |
| WGPT | ≤ 0.2 |
| MEAP | ≤ 0.2 |
| QPRH | ≤ 0.2 |
| LGIR | ≤ 0.2 |
| VAEF | ≤ 0.2 |
| WTAW | ≤ 0.2 |
| MTYF | ≤ 0.2 |
| TGPV | ≤ 0.2 |
| RWCY | ≤ 0.2 |
| RQYF | 0.256 |
| VVHS | ≤ 0.2 |
| PVHC | ≤ 0.2 |
| PKNR | ≤ 0.2 |

| Variant | one-hybrid fitness for binding parS DNA |
| --- | --- |
| DNMG | ≤ 0.2 |
| QPMR | ≤ 0.2 |
| AVPN | ≤ 0.2 |
| WEVL | ≤ 0.2 |
| LKSP | ≤ 0.2 |
| YPPK | ≤ 0.2 |
| TTHG | ≤ 0.2 |
| IRSD | ≤ 0.2 |
| TPGP | ≤ 0.2 |
| HCAN | ≤ 0.2 |
| VINA | ≤ 0.2 |
| HTVA | ≤ 0.2 |
| HNTP | ≤ 0.2 |
| DMKI | ≤ 0.2 |
| TQYQ | ≤ 0.2 |
| NQRL | ≤ 0.2 |
| RIGT | 0.924 |
| WAST | ≤ 0.2 |
| PPDD | ≤ 0.2 |
| LPRA | ≤ 0.2 |
| YRAY | ≤ 0.2 |
| DLRH | ≤ 0.2 |
| ATDA | ≤ 0.2 |
| ERQN | ≤ 0.2 |

| Variant | one-hybrid fitness for binding parS DNA |
| --- | --- |
| GDNS | ≤ 0.2 |
| SPCM | ≤ 0.2 |
| RMVQ | 0.234 |
| GSQF | ≤ 0.2 |
| LSYR | ≤ 0.2 |
| GVHQ | 0.246 |
| SSYG | ≤ 0.2 |
| RIPA | 0.29 |
| QKGY | ≤ 0.2 |
| SGYR | ≤ 0.2 |
| VKPG | ≤ 0.2 |
| VRAC | ≤ 0.2 |
| HCHG | ≤ 0.2 |
| RFLT | 0.75 |
| LCFL | ≤ 0.2 |
| GKHT | ≤ 0.2 |
| FVKR | ≤ 0.2 |
| SNMN | ≤ 0.2 |
| AMQC | ≤ 0.2 |
| RSGA | 0.597 |
| FATG | ≤ 0.2 |
| GYSK | ≤ 0.2 |
| FTKP | ≤ 0.2 |
| RYVG | 0.899 |

| Variant | one-hybrid fitness for binding parS DNA |
| --- | --- |
| DIPN | ≤ 0.2 |
| ADSS | ≤ 0.2 |
| HQTW | ≤ 0.2 |
| YVSF | ≤ 0.2 |
| PTRG | ≤ 0.2 |
| DNNR | ≤ 0.2 |
| GTWA | ≤ 0.2 |
| FGQS | ≤ 0.2 |
| RSPC | 0.421 |
| RYWL | ≤ 0.2 |
| GKAG | ≤ 0.2 |
| RCTW | 0.232 |
| TDKD | ≤ 0.2 |
| FCLG | ≤ 0.2 |
| RPSY | ≤ 0.2 |
| QSAQ | ≤ 0.2 |
| MSVS | ≤ 0.2 |
| FVGC | ≤ 0.2 |
| LIKY | ≤ 0.2 |
| RQPE | ≤ 0.2 |
| RWAK | ≤ 0.2 |
| QVRW | ≤ 0.2 |
| NWRI | ≤ 0.2 |
| QALF | ≤ 0.2 |

| Variant | one-hybrid fitness for binding parS DNA |
| --- | --- |
| DILG | ≤ 0.2 |
| YLLV | ≤ 0.2 |
| SEAN | ≤ 0.2 |
| QMIA | ≤ 0.2 |
| NIPD | ≤ 0.2 |
| MESP | ≤ 0.2 |
| QKYC | ≤ 0.2 |
| HYYK | ≤ 0.2 |
| MVRV | ≤ 0.2 |
| WDGT | ≤ 0.2 |
| AADT | ≤ 0.2 |
| KGPR | ≤ 0.2 |
| VHLG | ≤ 0.2 |
| ITRF | ≤ 0.2 |
| YHPG | ≤ 0.2 |
| ENLG | ≤ 0.2 |
| QAIA | ≤ 0.2 |
| QGST | ≤ 0.2 |
| CVAS | ≤ 0.2 |
| EALA | ≤ 0.2 |
| LIQD | ≤ 0.2 |
| DVVC | ≤ 0.2 |
| HVYT | ≤ 0.2 |
| YPPM | ≤ 0.2 |

| Variant | one-hybrid fitness for binding parS DNA |
| --- | --- |
| NTQF | ≤ 0.2 |
| MYLS | ≤ 0.2 |
| VAHT | ≤ 0.2 |
| VHWT | ≤ 0.2 |
| QVGG | ≤ 0.2 |
| THSS | ≤ 0.2 |
| LNLC | ≤ 0.2 |
| YQQT | ≤ 0.2 |
| MVGG | ≤ 0.2 |
| WPLC | ≤ 0.2 |
| KVTV | ≤ 0.2 |
| LQQT | ≤ 0.2 |
| KMPW | ≤ 0.2 |
| LSSV | ≤ 0.2 |
| RPGA | ≤ 0.2 |
| ASMY | ≤ 0.2 |
| VRAF | ≤ 0.2 |
| MMPN | ≤ 0.2 |
| LQCR | ≤ 0.2 |
| IRIG | ≤ 0.2 |
| RTIC | 0.912 |
| FALL | ≤ 0.2 |
| LLVN | ≤ 0.2 |
| LEHH | ≤ 0.2 |

| Variant | one-hybrid fitness for binding parS DNA |
| --- | --- |
| GRAT | ≤ 0.2 |
| WMFT | ≤ 0.2 |
| CPNE | ≤ 0.2 |
| DTHT | ≤ 0.2 |
| FNSL | ≤ 0.2 |
| VSTR | ≤ 0.2 |
| RSED | ≤ 0.2 |
| HTAV | ≤ 0.2 |
| RMNP | ≤ 0.2 |
| AVHK | ≤ 0.2 |
| RYQR | ≤ 0.2 |
| ETKT | ≤ 0.2 |
| EARR | ≤ 0.2 |
| RAHE | ≤ 0.2 |
| QAID | ≤ 0.2 |
| GYRH | ≤ 0.2 |
| QCLH | ≤ 0.2 |
| RVLP | ≤ 0.2 |
| LLQS | ≤ 0.2 |
| QKYR | ≤ 0.2 |
| QERC | ≤ 0.2 |
| PSSI | ≤ 0.2 |
| EAES | ≤ 0.2 |
| VDKA | ≤ 0.2 |

| Variant | one-hybrid fitness for binding parS DNA |
| --- | --- |
| YFFG | ≤ 0.2 |
| QYSR | ≤ 0.2 |
| YLKR | ≤ 0.2 |
| TIYC | ≤ 0.2 |
| TPNP | ≤ 0.2 |
| KWES | ≤ 0.2 |
| QIEL | ≤ 0.2 |
| GLFG | ≤ 0.2 |
| RPGQ | ≤ 0.2 |
| TLNS | ≤ 0.2 |
| YSLC | ≤ 0.2 |
| EALW | ≤ 0.2 |
| RISE | ≤ 0.2 |
| KHTI | ≤ 0.2 |
| TGSK | ≤ 0.2 |
| IARL | ≤ 0.2 |
| WYVS | ≤ 0.2 |
| TAYM | ≤ 0.2 |
| HSPV | ≤ 0.2 |
| QKNF | ≤ 0.2 |
| CSDR | ≤ 0.2 |
| RERT | 0.216 |
| FWDI | ≤ 0.2 |
| ANNC | ≤ 0.2 |

| Variant | one-hybrid fitness for binding parS DNA |
| --- | --- |
| TMSG | ≤ 0.2 |
| AQNP | ≤ 0.2 |
| EDRY | ≤ 0.2 |
| IEKF | ≤ 0.2 |
| VLMG | ≤ 0.2 |
| TLVA | ≤ 0.2 |
| KHQT | ≤ 0.2 |
| LLNV | ≤ 0.2 |
| DPNH | ≤ 0.2 |
| PIEL | ≤ 0.2 |
| KTCW | ≤ 0.2 |
| CQLP | ≤ 0.2 |
| AQPM | ≤ 0.2 |
| EWSR | ≤ 0.2 |
| ELRC | ≤ 0.2 |
| AKPE | ≤ 0.2 |
| SDYN | ≤ 0.2 |
| KHNR | ≤ 0.2 |
| ARDG | ≤ 0.2 |
| IMYC | ≤ 0.2 |
| RTVD | ≤ 0.2 |
| YCVL | ≤ 0.2 |
| DPPF | ≤ 0.2 |
| RGSK | ≤ 0.2 |

| Variant | one-hybrid fitness for binding parS DNA |
| --- | --- |
| QSER | ≤ 0.2 |
| STPL | ≤ 0.2 |
| CVYY | ≤ 0.2 |
| QACK | ≤ 0.2 |
| HINS | ≤ 0.2 |
| CSVN | ≤ 0.2 |
| LVGR | ≤ 0.2 |
| TSGT | ≤ 0.2 |
| PRAM | ≤ 0.2 |
| LRVS | ≤ 0.2 |
| KHQG | ≤ 0.2 |
| DWHD | ≤ 0.2 |
| LTQC | ≤ 0.2 |
| VPES | ≤ 0.2 |
| AGGC | ≤ 0.2 |
| FHEF | ≤ 0.2 |
| SRTV | ≤ 0.2 |
| PTAY | ≤ 0.2 |
| AHRY | ≤ 0.2 |
| LIAD | ≤ 0.2 |
| WRAT | ≤ 0.2 |
| QKYY | ≤ 0.2 |
| NCHR | ≤ 0.2 |
| AMPQ | ≤ 0.2 |

| Variant | one-hybrid fitness for binding parS DNA |
| --- | --- |
| MPVG | ≤ 0.2 |
| KWTY | ≤ 0.2 |
| NRVA | ≤ 0.2 |
| CAID | ≤ 0.2 |
| NPSA | ≤ 0.2 |
| DLKV | ≤ 0.2 |
| EEDN | ≤ 0.2 |
| TYAE | ≤ 0.2 |
| QLDG | ≤ 0.2 |
| FSDR | ≤ 0.2 |
| QPDR | ≤ 0.2 |
| QIIR | ≤ 0.2 |
| MVVQ | ≤ 0.2 |
| MCLT | ≤ 0.2 |
| KTGC | ≤ 0.2 |
| PHSK | ≤ 0.2 |
| QPTR | ≤ 0.2 |
| WRYF | ≤ 0.2 |
| AQLA | ≤ 0.2 |
| RQLA | 0.568 |
| HVYS | ≤ 0.2 |
| PMVG | ≤ 0.2 |
| FKTS | ≤ 0.2 |
| VCTT | ≤ 0.2 |

| Variant | one-hybrid fitness for binding parS DNA |
| --- | --- |
| ATII | ≤ 0.2 |
| REAE | ≤ 0.2 |
| RMAM | 0.332 |
| HINR | ≤ 0.2 |
| EPTQ | ≤ 0.2 |
| NFDD | ≤ 0.2 |
| NHPQ | ≤ 0.2 |
| QATA | ≤ 0.2 |
| QGNL | ≤ 0.2 |
| AFVW | ≤ 0.2 |
| VWGV | ≤ 0.2 |
| QGNQ | ≤ 0.2 |
| RTTV | ≤ 0.2 |
| TQLT | ≤ 0.2 |
| AKDS | ≤ 0.2 |
| LFKG | ≤ 0.2 |
| WDTK | ≤ 0.2 |
| VYDY | ≤ 0.2 |
| VQQS | ≤ 0.2 |
| GARM | ≤ 0.2 |
| SAIS | ≤ 0.2 |
| ASWL | ≤ 0.2 |
| LTQF | ≤ 0.2 |
| LWAT | ≤ 0.2 |

| Variant | one-hybrid fitness for binding parS DNA |
| --- | --- |
| RVDA | 0.556 |
| PYCC | ≤ 0.2 |
| RQKK | ≤ 0.2 |
| ELNR | ≤ 0.2 |
| RVAY | 0.464 |
| LVTY | ≤ 0.2 |
| DYQR | ≤ 0.2 |
| MRLA | ≤ 0.2 |
| MFCN | ≤ 0.2 |
| WFNN | ≤ 0.2 |
| DTAC | ≤ 0.2 |
| RFHK | ≤ 0.2 |
| RNAS | 0.914 |
| CGAC | ≤ 0.2 |
| VTGC | ≤ 0.2 |
| HMGG | ≤ 0.2 |
| QWNC | ≤ 0.2 |
| KRDS | ≤ 0.2 |

Source: a collection of fitness landscapes (doi:10.1016/j.celrep.2020.107928)
